# Measurements reported in the supplement of paper PMC8728848.
# The list shows a part of the results.
# B1: MAL-II (Maackia amurensis), P93248 (protein)
# chain: ATSNSKPTQVLLATFLTFFFLLLNNVNSSDELSFTINNFVPNEADLLFQGEASVSSTGVLQLTRVENGQPQQYSVGRALYAAPVRIWDNTTGSVASFSTSFTFVVKAPNPTITSDGLAFFLAPPDSQIPSGRVSKYLGLFNNSNSDSSNQIVAVEFDTYFGHSYDPWDPNYRHIGIDVNGIESIKTVQWDWINGGVAFATITYLAPNKTLIASLVYPSNQTSFIVAASVDLKEILPEWVRVGFSAATGYPTQVETHDVLSWSFTSTLEANSDAATENNVHIARYTA
# Columns and labels:
# Experiment in all cases: glycan array binding signal (z-score within array); higher = stronger binding
# Settings in all cases: glycan notation: IUPAC condensed, linker removed
# [1] = target: Gal(b1-4)GlcNAc(b1-3)Gal(b1-4)GlcNAc(b1-3)Gal(b1-4)GlcNAc(b1-2)Man(a1-3)[Gal(b1-4)GlcNAc(b1-3)Gal(b1-4)GlcNAc(b1-3)Gal(b1-4)GlcNAc(b1-2)Man(a1-6)]Man(b1-4)GlcNAc(b1-4)[Fuc(a1-6)]GlcNAc
# In short: (§1)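 The Consortium for Functional Glycomics database supplied 3228 glycan arrays, of which those lacking an available protein sequence were dropped. The binding signal, a within-array Z-score, was averaged across arrays of the same protein sequence and across linkers. Negative scores can be read as non-binding.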
# [2] = target: Gal(b1-4)GlcNAc(b1-3)Gal(b1-4)GlcNAc(b1-3)Gal(b1-4)GlcNAc(b1-2)[Gal(b1-4)GlcNAc(b1-3)Gal(b1-4)GlcNAc(b1-3)Gal(b1-4)GlcNAc(b1-6)]Man(a1-6)[Gal(b1-4)GlcNAc(b1-3)Gal(b1-4)GlcNAc(b1-3)Gal(b1-4)GlcNAc(b1-2)Man(a1-3)]Man(b1-4)GlcNAc(b1-4)[Fuc(a1-6)]GlcNAc
# In short: as §1
# [3] = target: Gal(b1-4)GlcNAc(b1-3)Gal(b1-4)GlcNAc(b1-3)Gal(b1-4)GlcNAc(b1-3)Gal(b1-4)GlcNAc(b1-2)Man(a1-3)[Gal(b1-4)GlcNAc(b1-3)Gal(b1-4)GlcNAc(b1-3)Gal(b1-4)GlcNAc(b1-3)Gal(b1-4)GlcNAc(b1-2)Man(a1-6)]Man(b1-4)GlcNAc(b1-4)GlcNAc
# In short: as §1
# [4] = target: Gal(b1-4)GlcNAc(b1-3)Gal(b1-4)GlcNAc(b1-3)Gal(b1-4)GlcNAc(b1-3)Gal(b1-4)GlcNAc(b1-2)Man(a1-3)[Gal(b1-4)GlcNAc(b1-3)Gal(b1-4)GlcNAc(b1-3)Gal(b1-4)GlcNAc(b1-3)Gal(b1-4)GlcNAc(b1-2)Man(a1-6)]Man(b1-4)GlcNAc(b1-4)[Fuc(a1-6)]GlcNAc
# In short: as §1
# [5] = target: Gal(b1-4)GlcNAc(b1-3)Gal(b1-4)GlcNAc(b1-3)Gal(b1-4)GlcNAc(b1-3)Gal(b1-4)GlcNAc(b1-2)[Gal(b1-4)GlcNAc(b1-3)Gal(b1-4)GlcNAc(b1-3)Gal(b1-4)GlcNAc(b1-3)Gal(b1-4)GlcNAc(b1-6)]Man(a1-6)[Gal(b1-4)GlcNAc(b1-3)Gal(b1-4)GlcNAc(b1-3)Gal(b1-4)GlcNAc(b1-3)Gal(b1-4)GlcNAc(b1-2)Man(a1-3)]Man(b1-4)GlcNAc(b1-4)[Fuc(a1-6)]GlcNAc
# In short: as §1
# [6] = target: Gal(b1-4)GlcNAc(b1-3)Gal(b1-4)GlcNAc(b1-3)Gal(b1-4)GlcNAc(b1-3)Gal(b1-4)GlcNAc(b1-3)Gal(b1-4)GlcNAc(b1-2)Man(a1-3)[Gal(b1-4)GlcNAc(b1-3)Gal(b1-4)GlcNAc(b1-3)Gal(b1-4)GlcNAc(b1-3)Gal(b1-4)GlcNAc(b1-3)Gal(b1-4)GlcNAc(b1-2)Man(a1-6)]Man(b1-4)GlcNAc(b1-4)GlcNAc
# In short: as §1
# [7] = target: Gal(b1-4)GlcNAc(b1-3)Gal(b1-4)GlcNAc(b1-3)Gal(b1-4)GlcNAc(b1-3)Gal(b1-4)GlcNAc(b1-3)Gal(b1-4)GlcNAc(b1-2)Man(a1-3)[Gal(b1-4)GlcNAc(b1-3)Gal(b1-4)GlcNAc(b1-3)Gal(b1-4)GlcNAc(b1-3)Gal(b1-4)GlcNAc(b1-3)Gal(b1-4)GlcNAc(b1-2)Man(a1-6)]Man(b1-4)GlcNAc(b1-4)[Fuc(a1-6)]GlcNAc
# In short: as §1
# [8] = target: Gal(b1-4)GlcNAc(b1-3)Gal(b1-4)GlcNAc(b1-3)Gal(b1-4)GlcNAc(b1-3)Gal(b1-4)GlcNAc(b1-3)Gal(b1-4)GlcNAc(b1-2)[Gal(b1-4)GlcNAc(b1-3)Gal(b1-4)GlcNAc(b1-3)Gal(b1-4)GlcNAc(b1-3)Gal(b1-4)GlcNAc(b1-3)Gal(b1-4)GlcNAc(b1-6)]Man(a1-6)[Gal(b1-4)GlcNAc(b1-3)Gal(b1-4)GlcNAc(b1-3)Gal(b1-4)GlcNAc(b1-3)Gal(b1-4)GlcNAc(b1-3)Gal(b1-4)GlcNAc(b1-2)Man(a1-3)]Man(b1-4)GlcNAc(b1-4)[Fuc(a1-6)]GlcNAc
# In short: as §1
# [9] = target: Gal(b1-4)GlcNAc(b1-3)Gal(b1-4)GlcNAc(b1-3)Gal(b1-4)GlcNAc(b1-3)Gal(b1-4)GlcNAc(b1-3)Gal(b1-4)GlcNAc(b1-3)Gal(b1-4)GlcNAc(b1-2)Man(a1-3)[Gal(b1-4)GlcNAc(b1-3)Gal(b1-4)GlcNAc(b1-3)Gal(b1-4)GlcNAc(b1-3)Gal(b1-4)GlcNAc(b1-3)Gal(b1-4)GlcNAc(b1-3)Gal(b1-4)GlcNAc(b1-2)Man(a1-6)]Man(b1-4)GlcNAc(b1-4)GlcNAc
# In short: as §1
# [10] = target: Gal(b1-4)GlcNAc(b1-3)Gal(b1-4)GlcNAc(b1-3)GalNAc
# In short: as §1
# [11] = target: Gal(b1-4)GlcNAc(b1-3)Gal(b1-4)GlcNAc(b1-3)[Gal(b1-4)GlcNAc(b1-3)Gal(b1-4)GlcNAc(b1-6)]GalNAc
# In short: as §1
# [12] = target: Gal(b1-4)GlcNAc(b1-3)Gal(b1-4)GlcNAc(b1-6)[Gal(b1-3)]GalNAc
# In short: as §1
# [13] = target: Gal(b1-4)GlcNAc(b1-3)Gal(b1-4)[Fuc(a1-3)]GlcNAc(b1-3)Gal(b1-4)[Fuc(a1-3)]GlcNAc
# In short: as §1
# [14] = target: Gal(b1-4)GlcNAc(b1-3)GalNAc
# In short: as §1
# [15] = target: Gal(b1-4)GlcNAc(b1-3)[Fuc(a1-3)GlcNAc(b1-6)]Gal(b1-4)Glc
# In short: as §1
# [16] = target: Gal(b1-4)GlcNAc(b1-3)[Gal(b1-4)GlcNAc(b1-6)]Gal(b1-4)GlcNAc
# In short: as §1
# [17] = target: Gal(b1-4)GlcNAc(b1-3)[Gal(b1-4)GlcNAc(b1-6)]GalNAc
# In short: as §1
# [18] = target: Gal(b1-4)GlcNAc(b1-3)[GlcNAc(b1-6)]Gal(b1-4)GlcNAc
# In short: as §1
# [19] = target: Gal(b1-4)GlcNAc(b1-6)Gal(b1-4)GlcNAc
# In short: as §1
# [20] = target: Gal(b1-4)GlcNAc(b1-6)Gal(b1-4)GlcNAc(b1-6)GalNAc
# In short: as §1
# [21] = target: Gal(b1-4)GlcNAc(b1-6)GalNAc
# In short: as §1
# [22] = target: Gal(b1-4)GlcNAc(b1-6)[Gal(b1-3)]GalNAc
# In short: as §1
# [23] = target: Gal(b1-4)GlcNAc(b1-6)[Gal(b1-4)GlcNAc(b1-3)]GalNAc
# In short: as §1
# Gal(b1-4)GlcNAc6P = target: Gal(b1-4)GlcNAc6P
# In short: as §1
# Gal(b1-6)Gal = target: Gal(b1-6)Gal
# In short: as §1
# Gal3S(b1-3)GalNAc = target: Gal3S(b1-3)GalNAc
# In short: as §1
# Gal3S(b1-3)GlcNAc = target: Gal3S(b1-3)GlcNAc
# In short: as §1
# [24] = target: Gal3S(b1-3)[Fuc(a1-4)]GlcNAc
# In short: as §1
# Gal3S(b1-4)Glc = target: Gal3S(b1-4)Glc
# In short: as §1
# Gal3S(b1-4)Glc6S = target: Gal3S(b1-4)Glc6S
# In short: as §1
# Gal3S(b1-4)GlcNAc = target: Gal3S(b1-4)GlcNAc
# In short: as §1
# Gal3S(b1-4)GlcNAc6S = target: Gal3S(b1-4)GlcNAc6S
# In short: as §1
# [25] = target: Gal3S(b1-4)[Fuc(a1-3)]Glc
# In short: as §1
# [26] = target: Gal3S(b1-4)[Fuc(a1-3)]Glc6S
# In short: as §1
# [27] = target: Gal3S(b1-4)[Fuc(a1-3)]GlcNAc
# In short: as §1
# [28] = target: Gal3S(b1-4)[Fuc(a1-3)]GlcNAc6S
# In short: as §1
# Gal3S4S(b1-4)GlcNAc = target: Gal3S4S(b1-4)GlcNAc
# In short: as §1
binder,measurement,setting,value
B1,glycan array binding signal (z-score),[1],1.02
same,glycan array binding signal (z-score),[2],1.29
same,glycan array binding signal (z-score),[3],-0.168
same,glycan array binding signal (z-score),[4],0.653
same,glycan array binding signal (z-score),[5],0.107
same,glycan array binding signal (z-score),[6],-0.179
same,glycan array binding signal (z-score),[7],0.084
same,glycan array binding signal (z-score),[8],-0.226
same,glycan array binding signal (z-score),[9],0.551
same,glycan array binding signal (z-score),[10],0.63
same,glycan array binding signal (z-score),[11],0.697
same,glycan array binding signal (z-score),[12],0.63
same,glycan array binding signal (z-score),[13],-0.198
same,glycan array binding signal (z-score),[14],-0.23
same,glycan array binding signal (z-score),[15],-0.169
same,glycan array binding signal (z-score),[16],-0.185
same,glycan array binding signal (z-score),[17],-0.226
same,glycan array binding signal (z-score),[18],-0.159
same,glycan array binding signal (z-score),[19],-0.23
same,glycan array binding signal (z-score),[20],-0.216
same,glycan array binding signal (z-score),[21],-0.169
same,glycan array binding signal (z-score),[22],-0.197
same,glycan array binding signal (z-score),[23],-0.19
same,glycan array binding signal (z-score),Gal(b1-4)GlcNAc6P,-0.169
same,glycan array binding signal (z-score),Gal(b1-6)Gal,-0.075
same,glycan array binding signal (z-score),Gal3S(b1-3)GalNAc,8.15
same,glycan array binding signal (z-score),Gal3S(b1-3)GlcNAc,2.09
same,glycan array binding signal (z-score),[24],-0.155
same,glycan array binding signal (z-score),Gal3S(b1-4)Glc,1.81
same,glycan array binding signal (z-score),Gal3S(b1-4)Glc6S,3.27
same,glycan array binding signal (z-score),Gal3S(b1-4)GlcNAc,1.84
same,glycan array binding signal (z-score),Gal3S(b1-4)GlcNAc6S,6.03
same,glycan array binding signal (z-score),[25],-0.216
same,glycan array binding signal (z-score),[26],0.424
same,glycan array binding signal (z-score),[27],-0.311
same,glycan array binding signal (z-score),[28],2.12
same,glycan array binding signal (z-score),Gal3S4S(b1-4)GlcNAc,-0.162
